{"source": "PubChem BioAssay AID624417", "about": "(National Center for Advancing Translational Sciences (NCATS), 2012)", "note": "Values joined by “and” are separate entries in the source; they are usually repeats but may differ in a detail not shown here. Equal entries are not always repeated. The whole screen tested about 410,000 compounds, of which about 6,400 (1.6%) were called active. Inconclusive means that the source gave no clear call. Such entries were picked first, then a sample of the others. The call rests on the fitted dose curve; in most records, active means well fitted inhibition curve with a large enough effect; inconclusive means small, poorly fitted or top-dose-only effect; inactive means no such curve, though single readings can be large or run the other way. A potency beside an inconclusive call is a rough fit, not a confirmed value. On the % scale 0 is the no-effect control and ±100 the full control effect; potency means the concentration at half of the fitted maximal effect; tags describe the fitted curve by direction and shape."}
{"target": "Glucagon-like peptide 1 receptor (Homo sapiens) (UniProt P43220)", "sequence (P43220 whole entry, looked up)": "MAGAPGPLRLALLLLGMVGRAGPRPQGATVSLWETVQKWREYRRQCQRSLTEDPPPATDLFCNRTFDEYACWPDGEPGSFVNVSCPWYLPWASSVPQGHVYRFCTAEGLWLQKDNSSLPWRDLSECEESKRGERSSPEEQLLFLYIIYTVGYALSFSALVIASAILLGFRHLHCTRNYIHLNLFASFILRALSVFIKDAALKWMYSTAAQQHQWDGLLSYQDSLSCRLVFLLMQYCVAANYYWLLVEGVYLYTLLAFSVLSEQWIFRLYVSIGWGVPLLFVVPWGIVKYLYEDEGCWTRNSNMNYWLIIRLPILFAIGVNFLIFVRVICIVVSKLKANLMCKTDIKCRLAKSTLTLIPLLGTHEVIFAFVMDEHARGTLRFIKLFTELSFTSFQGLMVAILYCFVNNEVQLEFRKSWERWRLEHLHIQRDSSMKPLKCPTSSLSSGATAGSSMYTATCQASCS", "assay": "qHTS of GLP-1 Receptor Inverse Agonists (Inhibition Mode); further: nearly all actives have a fitted effect of over 55% in size", "conditions": "HEK293 GLP-1R CRE-luciferase, luminescence, 24 h, GLP-1R form is constitutively active; activity change, negative = inhibition: at 38.3 µM (top of the series) unless noted", "outline": "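Inverse agonists were sought by their lowering of basal cAMP reporter luciferase output in HEK293 cells stably carrying constitutively active human GLP-1R, after 24 h compound treatment.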"}
{"smiles": "CCOC(=O)C1CCCCN1Cc1cccc(OC)c1OC", "note": "(configuration not stated)", "Potency": "inconclusive: 28.2 µM [inhibitor, single point]"}
{"smiles": "O=C(N/N=C/c1ccc(-c2ccccc2[N+](=O)[O-])o1)c1cccnc1", "activity change, negative = inhibition": "inactive: 0.661%"}
{"smiles": "O=C(CCCN1C(=O)c2cccc3cccc(c23)C1=O)N1CCN(Cc2ccc3c(c2)OCO3)CC1", "Potency": "inconclusive: 8.91 µM [inhibitor, partial curve]"}
{"smiles": "Cc1ccc(CNC(=O)C(C)C2Sc3ccccc3NC2=O)cc1", "note": "(configuration not stated)", "Potency": "inconclusive: 28.2 µM [inhibitor, single point]"}
{"smiles": "COc1ccc(CNc2ccc(C)cc2)cc1Br", "Potency": "inconclusive: 14.1 µM [inhibitor, single point]"}
{"smiles": "O=C(CSc1nc(=O)n(CCN2CCOCC2)c2c1CCC2)Nc1ccc(F)cc1F", "activity change, negative = inhibition": "inactive: 7.75%"}
{"smiles": "CC(CCc1ccccc1)NC(=S)NC1CCCCC1", "note": "(configuration not stated)", "Potency": "inconclusive: 10 µM [inhibitor, single point]"}
{"smiles": "Cc1ccccc1C(=O)O/N=C(\\N)Cc1cccs1", "Potency": "inconclusive: 11.2 µM [inhibitor, single point]"}
{"smiles": "COc1ccccc1N=c1oc2cc(O)ccc2cc1C(N)=O", "activity change, negative = inhibition": "inactive: -20.8%"}
{"smiles": "COc1cc(/C=N/NC(=S)NC(C)C)ccc1OCC(=O)Nc1c(C)cc(C)cc1C", "activity change, negative = inhibition": "inactive: -3.31%"}
{"smiles": "O=c1c2cc([N+](=O)[O-])ccc2sn1-c1ccccc1", "activity change, negative = inhibition": "inactive: 11.4%"}
{"smiles": "CCOC(=O)c1cccc(NC(=O)CSc2nnc(COc3ccccc3)n2CC)c1", "Potency": "inconclusive: 28.2 µM [inhibitor, single point]"}
{"smiles": "O=C(N1CCN(Cc2ccc3c(c2)OCO3)CC1)C(Cl)(Cl)Cl", "Potency": "inconclusive: 7.94 µM [inhibitor, single point]"}
{"smiles": "Cc1ccc(-c2nc3cccc(C)n3c2Nc2ccc3c(c2)OCO3)o1", "Potency": "inconclusive: 31.6 µM [inhibitor, partial curve, poor fit]"}
{"smiles": "O=C(c1cccc(Cl)c1)c1nn(-c2ccccc2)c(=O)cc1C(F)(F)F", "Potency": "inconclusive: 31.6 µM [inhibitor, single point]"}
{"smiles": "Cc1cccc(C)c1NC(=O)/C(C#N)=C/c1ccsc1", "Potency": "inconclusive: 20 µM [inhibitor, single point]"}
{"smiles": "CN(CC(=O)Nc1c(Cl)cccc1Cl)C(=O)Cc1ccc2c(c1)CCC2", "Potency": "inconclusive: 22.4 µM [inhibitor, single point]"}
{"smiles": "COc1ccc(SC[C@H](C)CN2CC[C@H](C(C)(C)C)CCC2=O)cc1", "Potency": "inconclusive: 10 µM [inhibitor, partial curve, poor fit]"}
{"smiles": "NC(Cc1ccc(C(F)(F)F)cc1)c1csc(Nc2nccc(C(F)(F)F)n2)n1", "note": "(configuration not stated)", "Potency": "inconclusive: 31.6 µM [inhibitor, single point]"}
{"smiles": "Cc1ccc(C(C)C)c(OCCCn2ccnc2C)c1", "Potency": "inconclusive: 6.31 µM [inhibitor, partial curve, poor fit]"}
{"smiles": "Cc1cc(OC(C)C(=O)NCC2CCCO2)cc(C)c1Cl", "note": "(configuration not stated)", "Potency": "inconclusive: 11.2 µM [inhibitor, single point]"}
{"smiles": "COc1ccc(NC(=O)C2CCC(N3C(=O)C4C5C=CC(C5)C4C3=O)CC2)cc1", "note": "(configuration not stated)", "Potency": "inconclusive: 28.2 µM [inhibitor, single point]"}
{"smiles": "COc1ccc(-c2nc3cnccn3c2NC2CCCCC2)cc1-c1cccc(Cl)c1", "Potency": "inconclusive: 28.2 µM [inhibitor, single point] and inconclusive: 11.2 µM [inhibitor, single point]"}
{"smiles": "O=C(CNC(=O)C12CC3CC(CC(C3)C1)C2)Nc1ncccc1O", "activity change, negative = inhibition": "inactive: -18.7%"}
{"smiles": "CCN(CC)C(=O)c1ccc2c3c(cccc13)C(=O)N(CCc1ccc(OC)c(OC)c1)C2=O", "Potency": "inconclusive: 10 µM [inhibitor, partial curve]"}
{"smiles": "CCC(Sc1nc(C)cc(C)n1)C(=O)Nc1ccc(Cl)cn1", "note": "(configuration not stated)", "Potency": "inconclusive: 31.6 µM [inhibitor, single point]"}
{"smiles": "Cc1cc(C)c(OCC(=O)NCC(c2ccco2)N2CCCCC2)c(C)c1", "note": "(configuration not stated)", "Potency": "inconclusive: 8.91 µM [inhibitor, partial curve, poor fit]"}
{"smiles": "O=C(NCCCN1CCN(c2ccc(F)cc2)CC1)Nc1ccccc1Cl", "Potency": "inconclusive: 3.55 µM [inhibitor, full curve]"}
{"smiles": "COc1ccccc1OCCOCCOc1c(C)cc(C)cc1Br", "Potency": "inconclusive: 10 µM [inhibitor, partial curve, poor fit]"}
{"smiles": "O=C(COC(=O)c1ccccc1)Nc1cc(S(=O)(=O)N2CCCCCC2)ccc1Cl", "Potency": "inconclusive: 17.8 µM [inhibitor, single point]"}
{"smiles": "Cc1cc(C(=O)N/N=C/C(Cl)=C/c2ccccc2)c(C)o1", "Potency": "inconclusive: 10 µM [inhibitor, single point]"}
{"smiles": "CCCCC(O)(c1ccc(CC)cc1)C(CN1CCOCC1)c1ccccc1", "note": "(configuration not stated)", "Potency": "inconclusive: 5.62 µM [inhibitor, full curve, poor fit]"}
{"smiles": "Cc1ccc(S(=O)(=O)NCCC(=O)OCC(=O)N(Cc2ccccc2)C(C)(C)C)cc1", "Potency": "inconclusive: 7.08 µM [inhibitor, partial curve]"}
{"smiles": "CCOC(=O)c1c(C)[nH]c(C)c1C(=O)COC(=O)/C=C/c1cccc(Cl)c1", "activity change, negative = inhibition": "inactive: -4.25%"}
{"smiles": "Cc1ccc2nc(-c3ccc4c(c3)OCCO4)cn2c1", "Potency": "inconclusive: 1 µM [inhibitor, full curve, poor fit]"}
{"smiles": "Cc1ccc(S(=O)(=O)NCCC(=O)NNC(=O)COc2ccccc2Cl)cc1C", "Potency": "inconclusive: 28.2 µM [inhibitor, single point]"}
{"smiles": "CC(=O)N(C)c1ccc(N=Cc2c(O)ccc3ccccc23)cc1", "activity change, negative = inhibition": "inactive: 3.2%"}
{"smiles": "CCOc1ccc(-c2cc(C(=O)NCCc3ccc(C)cc3)c3ccccc3n2)cc1", "activity change, negative = inhibition": "inactive: 8.82%"}
{"smiles": "O=C(O)c1ccccc1C(c1ccccc1)c1ccccc1O", "note": "(configuration not stated)", "Potency": "inconclusive: 4.47 µM [inhibitor, partial curve]"}
{"smiles": "C=CCN(c1ccccc1OC)S(=O)(=O)c1cccc(C(=O)NC2=NCCS2)c1", "Potency": "inconclusive: 28.2 µM [inhibitor, single point]"}
{"smiles": "O=C(COc1ccccc1-c1ccccc1)NN=C1CCCC1", "Potency": "inconclusive: 20 µM [inhibitor, partial curve, poor fit]"}
{"smiles": "Cc1cccc(OCCn2c(CCCO)nc3ccccc32)c1", "Potency": "inconclusive: 22.4 µM [inhibitor, single point]"}
